Test results as given in PMC4919659 (2016).
Where two headings read alike, the source gives them in different places. These are yes or no findings as the source states them, for the method shown. Binding seen in cells or lysates may run through a third protein. Some results given as binding are weak or reduced against the parent protein; the word gives no strength. For some of these results: Tags and fused reporters may be left off the sequences shown.

By UniProt entry, the sequences of proteins in these tests, tags left out.
UniProt O75901: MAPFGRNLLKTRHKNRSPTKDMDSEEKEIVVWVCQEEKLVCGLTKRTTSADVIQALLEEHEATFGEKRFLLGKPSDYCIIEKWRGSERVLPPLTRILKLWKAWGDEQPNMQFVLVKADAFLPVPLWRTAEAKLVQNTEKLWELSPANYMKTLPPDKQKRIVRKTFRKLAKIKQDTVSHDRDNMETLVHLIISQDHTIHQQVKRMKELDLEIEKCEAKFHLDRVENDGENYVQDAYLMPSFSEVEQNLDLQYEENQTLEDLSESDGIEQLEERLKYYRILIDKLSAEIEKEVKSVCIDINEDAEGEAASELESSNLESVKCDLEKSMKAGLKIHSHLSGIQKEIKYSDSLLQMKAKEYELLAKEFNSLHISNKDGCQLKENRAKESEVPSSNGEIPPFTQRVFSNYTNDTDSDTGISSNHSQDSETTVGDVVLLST

T1: mCherry-MST1ΔSARAH (UniProt Q13043)
T1 sequence: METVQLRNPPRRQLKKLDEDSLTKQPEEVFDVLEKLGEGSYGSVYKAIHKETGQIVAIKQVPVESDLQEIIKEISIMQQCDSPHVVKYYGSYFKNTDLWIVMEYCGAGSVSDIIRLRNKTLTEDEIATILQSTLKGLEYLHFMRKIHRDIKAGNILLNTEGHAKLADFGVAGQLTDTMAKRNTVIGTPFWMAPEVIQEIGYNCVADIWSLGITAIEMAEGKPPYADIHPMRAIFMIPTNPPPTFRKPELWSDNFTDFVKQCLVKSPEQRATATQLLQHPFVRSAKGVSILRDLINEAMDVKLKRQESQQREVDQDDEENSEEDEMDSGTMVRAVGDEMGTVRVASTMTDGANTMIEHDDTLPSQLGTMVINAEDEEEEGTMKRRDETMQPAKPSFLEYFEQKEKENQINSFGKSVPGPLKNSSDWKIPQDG

T2: myc-MST1 K59R (UniProt Q13043)
T2 sequence: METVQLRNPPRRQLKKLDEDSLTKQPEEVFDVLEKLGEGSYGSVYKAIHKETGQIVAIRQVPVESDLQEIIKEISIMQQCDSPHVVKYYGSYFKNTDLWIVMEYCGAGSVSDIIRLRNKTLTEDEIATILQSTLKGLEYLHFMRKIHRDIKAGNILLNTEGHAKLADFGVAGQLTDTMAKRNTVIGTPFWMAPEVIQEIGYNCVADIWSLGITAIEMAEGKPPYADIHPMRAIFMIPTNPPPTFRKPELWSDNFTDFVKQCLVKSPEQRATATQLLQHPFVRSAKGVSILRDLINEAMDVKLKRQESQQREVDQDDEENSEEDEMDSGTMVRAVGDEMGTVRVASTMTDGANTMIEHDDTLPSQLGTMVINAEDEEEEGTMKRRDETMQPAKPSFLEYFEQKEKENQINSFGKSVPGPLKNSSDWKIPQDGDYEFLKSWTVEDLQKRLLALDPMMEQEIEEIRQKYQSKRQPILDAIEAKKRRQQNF

T3: mCherry-SARAH_(MST1) (UniProt Q13043)
T3 sequence: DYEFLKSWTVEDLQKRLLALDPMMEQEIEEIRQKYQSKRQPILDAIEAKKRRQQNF

T4: mCherry-MST1 (UniProt Q13043)
T4 sequence: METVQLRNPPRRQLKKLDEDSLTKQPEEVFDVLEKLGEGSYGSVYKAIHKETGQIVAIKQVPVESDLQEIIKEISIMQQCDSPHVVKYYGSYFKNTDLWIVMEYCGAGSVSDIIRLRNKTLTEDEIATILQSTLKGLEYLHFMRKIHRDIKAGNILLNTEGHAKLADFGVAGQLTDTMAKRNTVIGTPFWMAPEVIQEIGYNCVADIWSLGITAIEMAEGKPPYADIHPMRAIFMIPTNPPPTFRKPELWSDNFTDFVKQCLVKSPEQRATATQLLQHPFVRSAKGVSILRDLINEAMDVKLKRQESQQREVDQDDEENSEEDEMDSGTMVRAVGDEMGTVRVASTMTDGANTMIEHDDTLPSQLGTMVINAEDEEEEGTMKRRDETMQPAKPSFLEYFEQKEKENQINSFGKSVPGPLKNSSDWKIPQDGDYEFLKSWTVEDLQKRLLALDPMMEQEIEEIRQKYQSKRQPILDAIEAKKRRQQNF


How the values were obtained:
mCherry-MST1ΔSARAH [1] = biological target: T1, mCherry-MST1ΔSARAH; test: FRET or BRET; FLIM-FRET in fixed COS7 cells co-transfected with EGFP-labelled donor and mCherry-labelled acceptor; 96-well plate, wide-field time-gated FLIM, 10 fields of view per well, EGFP lifetime from a monoexponential fit; shift of at least 32 ps taken as significant
myc-MST1 K59R = biological target: T2, myc-MST1 K59R; test: co-IP; Anti-c-Myc Immunoprecipitation kit (Sigma) on co-transfected cell lysates; blot with anti-GFP; repeated three times
mCherry-SARAH_(MST1) [2] = biological target: T3, mCherry-SARAH_(MST1); test: FRET or BRET; FLIM-FRET in fixed COS7 cells co-transfected with EGFP-labelled donor and mCherry-labelled acceptor; optically sectioned FLIM with a spinning Nipkow disc, 40x objective; monoexponential fit and global double exponential fit (FRET fraction, KD per cell from calibrated intensities)
mCherry-MST1 = biological target: T4, mCherry-MST1; test: as above
mCherry-SARAH_(MST1) [3] = biological target: T3, mCherry-SARAH_(MST1); test: FRET or BRET; FLIM-FRET in fixed COS7 cells co-transfected with EGFP-labelled donor and mCherry-labelled acceptor; 96-well plate, wide-field time-gated FLIM, 10 fields of view per well, EGFP lifetime from a monoexponential fit; shift of at least 32 ps taken as significant
mCherry-MST1ΔSARAH [4] = biological target: T1, mCherry-MST1ΔSARAH; test: as above; remark: listed apart in the source

binding (mCherry-MST1ΔSARAH [1]) | binding (myc-MST1 K59R) | binding (mCherry-SARAH_(MST1) [2]) | binding (mCherry-MST1) | binding (mCherry-SARAH_(MST1) [3]) | binding (mCherry-MST1ΔSARAH [4]) | Molecule
no binding |  |  |  |  |  | EGFP-RASSF9 (from UniProt O75901 1-435)
 | binds | binds | binds | binds | no binding | EGFP-RASSF5C (wild type) (protein, UniProt Q8WWW0-2 1-265) MTVDSSMSSGYCSLDEELEDCFFTAKTTFFRNAQSKHLSKNVCKPVEETQRPPTLQEIKQKIDSYNTREKNCLGMKLSEDGTYTGFIKVHLKLRRPVTVPAGIRPQSIYDAIKEVNLAATTDKRTSFYLPLDAIKQLHISSTTTVSEVIQGLLKKFMVVDNPQKFALFKRIHKDGQVLFQKLSIADRPLYLRLLAGPDTEVLSFVLKENETGEVEWDAFSIPELQNFLTILEKEEQDKIQQVQKKYDKFRQKLEEALRESQGKPG
 |  | binds | binds | binds | no binding | EGFP-RASSF2 (protein, UniProt P50749 1-326) MDYSHQTSLVPCGQDKYISKNELLLHLKTYNLYYEGQNLQLRHREEEDEFIVEGLLNISWGLRRPIRLQMQDDNERIRPPPSSSSWHSGCNLGAQGTTLKPLTVPKVQISEVDAPPEGDQMPSSTDSRGLKPLQEDTPQLMRTRSDVGVRRRGNVRTPSDQRRIRRHRFSINGHFYNHKTSVFTPAYGSVTNVRINSTMTTPQVLKLLLNKFKIENSAEEFALYVVHTSGEKQKLKATDYPLIARILQGPCEQISKVFLMEKDQVEEVTYDVAQYIKFEMPVLKSFIQKLQEEEDREVKKLMRKYTVLRLMIRQRLEEIAETPATI
 |  | binds | binds | binds | no binding | EGFP-RASSF3 (protein, UniProt Q86WH2 1-238) MSSGYSSLEEDAEDFFFTARTSFFRRAPQGKPRSGQQDVEKEKETHSYLSKEEIKEKVHKYNLAVTDKLKMTLNSNGIYTGFIKVQMELCKPPQTSPNSGKLSPSSNGCMNTLHISSTNTVGEVIEALLKKFLVTESPAKFALYKRCHREDQVYACKLSDREHPLYLRLVAGPRTDTLSFVLREHEIGEWEAFSLPELQNFLRILDKEEDEQLQNLKRRYTAYRQKLEEALREVWKPD
 |  | binds | binds | binds | no binding | EGFP-RASSF4 (protein, UniProt Q9H2L5 1-321) MKEDCLPSSHVPISDSKSIQKSELLGLLKTYNCYHEGKSFQLRHREEEGTLIIEGLLNIAWGLRRPIRLQMQDDREQVHLPSTSWMPRRPSCPLKEPSPQNGNITAQGPSIQPVHKAESSTDSSGPLEEAEEAPQLMRTKSDASCMSQRRPKCRAPGEAQRIRRHRFSINGHFYNHKTSVFTPAYGSVTNVRVNSTMTTLQVLTLLLNKFRVEDGPSEFALYIVHESGERTKLKDCEYPLISRILHGPCEKIARIFLMEADLGVEVPHEVAQYIKFEMPVLDSFVEKLKEEEEREIIKLTMKFQALRLTMLQRLEQLVEAK
 |  | binds | binds | binds | no binding | EGFP-RASSF6 (protein, UniProt Q6ZTQ3 1-369) MLWEETGAAPAPARASDLPYRISSDHLKKEEKMTMMAHQYPSWIFINEKTFITREQLNSLLKTYNIFYENQKNLHILYGETEDGKLIVEGMLDIFWGVKRPIQLKIQDEKPFSSFTSMKSSDVFSSKGMTRWGEFDDLYRISELDRTQIPMSEKRNSQEDYLSYHSNTLKPHAKDEPDSPVLYRTMSEAALVRKRMKPLMMDRKERQKNRASINGHFYNHETSIFIPAFESETKVRVNSNMRTEEVIKQLLQKFKIENSPQDFALHIIFATGEQRRLKKTDIPLLQRLLQGPSEKNARIFLMDKDAEEISSDVAQYINFHFSLLESILQRLNEEEKREIQRIVTKFNKEKAIILKCLQNKLVIKTETTV
 |  |  |  |  | no binding | EGFP-RASSF10 (protein, UniProt A6NK89 1-507) MDPSEKKISVWICQEEKLVSGLSRRTTCSDVVRVLLEDGCRRRRRQRRSRRLGSAGDPHGPGELPEPPNEDDEDDDEALPQGMLCGPPQCYCIVEKWRGFERILPNKTRILRLWAAWGEEQENVRFVLVRSEASLPNAGPRSAEARVVLSRERPCPARGAPARPSLAMTQEKQRRVVRKAFRKLAKLNRRRQQQTPSSCSSTSSSTASSCSSSPRTHESASVERMETLVHLVLSQDHTIRQQVQRLHELDREIDHYEAKVHLDRMRRHGVNYVQDTYLVGAGIELDGSRPGEEPEEVAAEAEEAAAAPPLAGEAQAAALEELARRCDDLLRLQEQRVQQEELLERLSAEIQEELNQRWMRRRQEELAAREEPLEPDGGPDGELLLEQERVRTQLSTSLYIGLRLNTDLEAVKSDLDYSQQQWDSKKRELQGLLQTLHTLELTVAPDGAPGSGSPSREPGPQACADMWVDQARGLAKSGPGNDEDSDTGLSSMHSQDSDSLPMCESLV
 |  |  |  |  | no binding | EGFP-RASSF7 (protein, UniProt Q02833 1-373) MLLGLAAMELKVWVDGIQRVVCGVSEQTTCQEVVIALAQAIGQTGRFVLVQRLREKERQLLPQECPVGAQATCGQFASDVQFVLRRTGPSLAGRPSSDSCPPPERCLIRASLPVKPRAALGCEPRKTLTPEPAPSLSRPGPAAPVTPTPGCCTDLRGLELRVQRNAEELGHEAFWEQELRREQAREREGQARLQALSAATAEHAARLQALDAQARALEAELQLAAEAPGPPSPMASATERLHQDLAVQERQSAEVQGSLALVSRALEAAERALQAQAQELEELNRELRQCNLQQFIQQTGAALPPPPRPDRGPPGTQGPLPPAREESLLGAPSESHAGAQPRPRGGPHDAELLEVAAAPAPEWCPLAAQPQAL
 |  |  |  |  | no binding | EGFP-RASSF8 (protein, UniProt Q8NHQ8 1-419) MELKVWVDGVQRIVCGVTEVTTCQEVVIALAQAIGRTGRYTLIEKWRDTERHLAPHENPIISLNKWGQYASDVQLILRRTGPSLSERPTSDSVARIPERTLYRQSLPPLAKLRPQIDKSIKRREPKRKSLTFTGGAKGLMDIFGKGKETEFKQKVLNNCKTTADELKKLIRLQTEKLQSIEKQLESNEIEIRFWEQKYNSNLEEEIVRLEQKIKRNDVEIEEEEFWENELQIEQENEKQLKDQLQEIRQKITECENKLKDYLAQIRTMESGLEAEKLQREVQEAQVNEEEVKGKIGKVKGEIDIQGQQSLRLENGIKAVERSLGQATKRLQDKEQELEQLTKELRQVNLQQFIQQTGTKVTVLPAEPIEIEASHADIEREAPFQSGSLKRPGSSRQLPSNLRILQNPISSGFNPEGIYV
